Experimental data taken from PubChem BioAssay AID493208 (National Center for Advancing Translational Sciences (NCATS), 2011).
About 340 (0.77%) of roughly 44,000 compounds were called active. Another 5% or so got no clear call; they are omitted. The call rests on the fitted dose curve; in most records, active means well fitted inhibition curve with a large enough effect; inconclusive means small, poorly fitted or top-dose-only effect; inactive means flat fitted curve, though single readings scatter. Some of the results follow.

Assay: Acumen qHTS Assay for Inhibitors of the mTORC1 Signaling Pathway in MEF (Tsc2-/-, p53-/-) Cells: Sytravon;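 further: plate controls were DMSO for no effect and rapamycin for full effect; nearly all actives have a fitted effect of over 50% in size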
Details: phospho-rpS6 immunofluorescence/PI, 24 h; series mostly up to 38.3 µM; activity change, negative = inhibition: at the top concentration
Procedure, shortened: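 Tsc2-/-, p53-/- MEFs (empty-vector stable line) in DMEM + 10% FBS were treated with compounds 24 h at 37 degree Celsius, fixed, and immunostained for phospho-rpS6 (Alexa-488) with propidium iodide counterstain. Laser-scanning cytometry gave % positive cells, normalized against 7.5 nM rapamycin and DMSO.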

Activity change, negative = inhibition, inactive:
CCOC(=O)c1cnc2ccc(OC)cc2c1Nc1ccc(OCc2ccccc2Cl)cc1 5.23%, Cc1ccc(NC(=O)CCC(=O)N2Cc3ccccc3Oc3ncccc32)cc1Cl -6.62%, COc1ccc(-c2nc3sc(CCNC(=O)Cc4ccccc4)c(C)n3n2)cc1 -5.25%, COc1ccc(C)cc1NC(=O)c1nnn(Cc2cccc(Br)c2)c1N -3.66%, COc1ccc(C2=NS(=O)(=O)N(C)C(C(=O)NC(C)c3ccccc3)=C2)cc1 (stereo not given) -10.7%, CCCS(=O)(=O)N1CCC(n2c(C)nc3cccnc32)CC1 6.4%, CCN(CC)S(=O)(=O)c1ccc2c(c1)N(CC(=O)NCCCN1CCN(c3ccc(OC)cc3)CC1)C(=O)CO2 3.64%, Cc1ccc2oc(C(=O)Nc3ccc(S(=O)(=O)N4CCCCC4C)cc3)cc(=O)c2c1 (stereo not given) 5.24%, CCOC(=O)c1cc(-c2ccccc2)n(CCC(=O)NCCc2ccccc2)c1C -17.4%, CCc1ccc(C(=O)c2cn(CC(=O)Nc3cc(OC)ccc3OC)c3ccc(Cl)cc3c2=O)cc1 -1.79%, COc1ccccc1NC(=O)CSc1cn(CC(=O)N2CCCC2)c2ccccc12 -6.05%, CC(=O)c1cccc(NC(=O)CCc2c(C)nc3nc(CN)nn3c2C)c1 0.795%, CC(=O)N1CCc2c(sc3c2c(=O)n(-c2ccccc2Cl)c(=O)n3Cc2cccc(C)c2)C1 -4.54%, CC(C)(C)C1CCc2c(sc(NC(=O)c3noc4c3CCCC4)c2C#N)C1 (stereo not given) -0.864%, CCC1CCCCN1C(=O)CSc1nnc(-c2ccc(OC)c(OC)c2)o1 (stereo not given) -8.57%, Cc1ccc2nc(-c3cccs3)c(Nc3ccc4c(c3)OCCO4)n2c1 -24.6%, CCC(=O)N1CCc2cc(S(=O)(=O)NCc3ccc(C)cc3)ccc21 -1.88%, CN(C)c1ncc(C(=O)NCc2ccc(Cl)cc2)cn1 0%, COc1ccccc1NC(=O)C1=C(C)Nc2nc3ccccc3n2C1c1ccccc1Cl (stereo not given) -0.725%, CCOc1ccc(NC(=O)c2ccc(F)c(S(=O)(=O)N(Cc3ccc(C(=O)OC)cc3)Cc3ccc(OC)c(OC)c3)c2)cc1 5.75%, O=C(Cn1cc(C(=O)c2ccco2)c2ccccc21)Nc1ccccc1 -3.98%, CCOc1ccc(N2CC(C)Cn3c2nc2c3c(=O)n(Cc3c(F)cccc3Cl)c(=O)n2C)cc1 (stereo not given) -8.65%, COc1ccc(Cl)cc1Nc1ccc2cc(S(=O)(=O)N3CCCCC3)ccc2n1 0%, Cc1cc(OCC(=O)N2CCC(c3nc4ccccc4s3)CC2)ccc1Cl 4.23%, O=C(CSc1ncc(-c2ccccc2)[nH]1)Nc1cccc(Br)c1 -3.18%, Cc1ccc(-c2nnn3c2nc(NC2CCC(C)CC2)c2ccccc23)cc1 (stereo not given) -16.1%, Cc1cc2n(n1)CCCN2C(=O)Nc1ccc(F)c(Cl)c1 -2.62%, CCOCCc1nnc(NC(=O)C(=O)c2cc(C)n(-c3ccc(Cl)cc3)c2C)s1 0.0739%, COC(=O)CN1C(C(=O)c2ccccc2)=C(OC(=O)c2ccc(F)cc2)c2ccccc2S1(=O)=O 0.631%, COc1cccc(-n2c(C)nc3cc(C(=O)O)ccc32)c1 4.56%, COc1cc2nc(NC(=O)c3ccc(S(=O)(=O)N4CCc5ccccc54)cc3)sc2cc1OC -6.97%, CC1CCCCN1C(=O)c1ccc2c(c1)N(Cc1ccc(F)cc1)C(=O)c1ccccc1S2(=O)=O (stereo not given) -13.3%, COc1cccc(-c2nc3c(C#N)c[nH]n3c2NC2CCCC2)c1OC 2.87%, COc1ccc(CNC(=O)C2CCN(S(=O)(=O)c3ccc4c(c3)CCCN4C(C)=O)CC2)cc1 -6.97%, CCc1ccccc1NC(=O)c1sc(-n2nc(C)c(Cc3ccccc3)c2C)nc1C -1.26%, COCc1cc(C)nc2sc3c(=O)n(-c4ccccc4C(F)(F)F)nnc3c12 -4.73%, Cc1ccc(C)c(CSc2nnc3[nH]c(=O)cc(-c4ccccc4)n23)c1 0.648%, CCCn1cc(S(=O)(=O)c2cc(C)ccc2C)c(=O)c2cc(F)c(N3CCN(CC)CC3)cc21 -0.674%, CCOC(=O)c1c(S(=O)(=O)NCC(=O)NCc2ccccc2Cl)c(C)n(C)c1C -0.121%, COCCCn1c(=O)c2sccc2n2c(CCCC(=O)NC3CCC(C)CC3)nnc12 (stereo not given) -4.01%, Cc1cccc(NC(=O)C2CCN(S(=O)(=O)c3ccc4c(c3)CCCN4C(=O)C3CCC3)CC2)c1 -12.8%, Cc1cccc(C)c1-n1ncc(C(=O)N2CCN(c3ncccn3)CC2)c1C1CCN(C(=O)OC(C)(C)C)CC1 -0.165%, COc1ccc(C(=O)N(Cc2ccc(N(C)C)cc2)CC2CCCO2)cc1 (stereo not given) 1.1%, COc1cc(NC(=O)CSc2nc(-c3ccc(C(C)C)cc3)no2)cc(OC)c1 -14.5%, COc1ccc(NC(=O)CSc2cn(CCNC(=O)c3c(F)cccc3F)c3ccccc23)cc1 -3.05%, CCN1CCN(Cc2c(O)ccc3c(=O)c(Oc4ccccc4C(C)C)c(C(F)(F)F)oc23)CC1 1.77%, Cc1ccc(NC(=O)CSc2nc3ccc(NC(=O)CCc4ccccc4)cc3s2)cc1 -2.16%, CCCN1CCN(CCCNC(=O)Cn2nc(C)n3c(cc4c(OC)cccc43)c2=O)CC1 0.236%, Cc1ccc(CNC(=O)c2cc3ccc4cccnc4c3[nH]2)cc1 -18.2%, COc1ccc(-c2noc(-c3ccc(NC4CCCC4)c([N+](=O)[O-])c3)n2)cc1OC 4.2%, Cc1ccccc1CNC(=O)c1ccc2nc(C(C)C)oc2c1 2.23%, COc1cc(Cl)c(C)cc1NC(c1ccccc1)c1nnc(-c2ccccc2Cl)o1 (stereo not given) 1.56%, Cc1ccc(NC(=O)Cn2cnc3c2c(=O)n(C)c(=O)n3C)cc1C 1.93%, CCN(C(=O)Cn1c(=O)n(Cc2ccccc2)c(=O)c2c1c1cc(OC)ccc1n2C)c1ccccc1 0.636%, CC(=O)Nc1ccc2nc(NC(=O)CS(=O)(=O)c3ccc(C)cc3)sc2c1 1.18%, CCC(C)n1c(=N)c(C(=O)NC2CCCCC2)cc2c(=O)n3ccccc3nc21 (stereo not given) 2.08%, Cc1ccc(C)c(N2CCN(S(=O)(=O)c3cn(C)c(C)n3)CC2)c1 -8.54%, COc1ccc(C2=Nc3ccc(OC(F)(F)F)cc3NC(c3cccnc3)=N2)cc1 -5.25%, Cc1ccc2c(=O)cc(C(=O)Nc3sc4c(c3C(=O)NCC3CCCO3)CCCC4)oc2c1C (stereo not given) 7.94%, Cc1ccc(Cl)cc1NC(=O)CCc1c(C)nc2c3cccnc3nn2c1C -9.58%, O=C(c1cccc(Cl)c1)N1c2ncnn2C2(CCCCC2)[C@@H]2CCCC[C@@H]21 -14.9%, Cc1ccc2c(c1)N(C(=O)N1CCC(C(=O)NCCc3ccccc3)CC1)CC(C)O2 (stereo not given) 9.38%, COc1ccc(-c2ccc3c(N)c(C(=O)NCc4ccc(C)cc4)sc3n2)cc1 -23.7%, CC(C)(C)OC(=O)N1CCC(c2c(C(=O)NCCN3CCOCC3)cnn2-c2ccc(F)cc2)CC1 5.21%, O=C(COc1ccc(F)cc1)Nc1nnc(SCc2cc(=O)n3ccccc3n2)s1 12.9%, CCOc1ccc(-c2nonc2NC(=O)c2oc3cc(C)ccc3c2C)cc1OCC 1.2%, COc1ccc(N2Cc3cccc(C(=O)Nc4ccc(Cl)cc4)c3C2=O)cc1 -1.7%, O=C(Nc1nc2n(n1)C(c1ccccc1)C=C(c1ccc(Cl)cc1)N2)c1ccco1 (stereo not given) -0.141%, COc1cccc(Cn2c(SCc3ccc(C(=O)N4CCCCC4)cc3)nc3ccncc32)c1 0.28%, Cc1cc(Cl)ccc1NC(=O)CN1C(=O)COc2ccc(S(=O)(=O)Nc3ccccc3)cc21 -7.69%, CCOC(=O)C1CCCN(C(=O)c2ccc3c(c2)sc2nc(-c4ccc(C)cc4C)cn23)C1 (stereo not given) 2.57%, Cc1ccc(CN(Cc2ccco2)C(=O)COc2cccc(C)c2C)o1 -6.5%, CC(=O)c1cccc(-n2c(=O)c3c4c(sc3n(CC(=O)Nc3ccccc3F)c2=O)CN(C(C)=O)CC4)c1 -0.498%, COc1cc(NC(=O)c2ccc3c(Cl)c4c(nc3c2)CCC4)cc(OC)c1OC -15.7%, CC(C)(CC(=O)OCC(=O)Nc1ccccc1F)CC1=NS(=O)(=O)c2ccccc2N1 -13.1%, O=C(COc1ccc([N+](=O)[O-])cc1)N1CCC(c2nc3ccccc3s2)CC1 -12.1%, CCc1ccc(CNC(=O)C2CCN(c3nnc(C)c4c(C)n(-c5ccc(C)cc5)nc34)CC2)cc1 -8.99%, CCOc1ccc(N(C(C)C(=O)NCCSc2ccc(Cl)cc2)S(C)(=O)=O)cc1 (stereo not given) 2.13%, Cc1cc(NC(=O)c2cc(-c3ccc(Br)cc3)on2)nn1Cc1ccc(Cl)cc1 -4.13%, O=C(Nc1nnc(S(=O)(=O)N2CCCCCC2)s1)c1ccccc1F -1.08%, O=C(Cn1nc(-c2ccccc2)c2cnc3ccc(F)cc3c21)NC1CCCC1 1.01%, CCOC(=O)C1CCN(c2cc(C)nc3c(-c4ccccc4OC)c(C)nn23)CC1 1.52%, CCOc1cccc2sc(N3CCN(C(=O)C(C)(C)C)CC3)nc12 1.51%, Cc1nc(N2CCOCC2)c2c(C(=O)N(C)Cc3ccccc3)c(C)oc2n1 4.57%, Cc1ccc(-c2nnc(SCC(=O)N3CCCc4ccccc43)o2)cc1 4%, Cc1cc(NC(=O)CSc2nc3c([nH]c4ccccc43)c(=O)n2-c2ccccc2F)no1 -0.538%, CCCCNc1nc(Oc2ccc(=O)n(-c3ccccc3)n2)nc(N(CC)CC)n1 -5.37%, Cc1ccc(C(=O)c2oc3ccccc3c2NC(=O)c2cc(=O)c3cc(C)ccc3o2)cc1 -6.04%, COc1cccc(Cn2ccn(-c3ccc(F)cc3)c(=O)c2=O)c1 6.62%, O=C(Nc1ccc(Cl)cc1)N1CCC(CN2CCCCCC2)CC1 -3.18%, COc1ccc(NC(=O)Cn2cc(C(=O)c3ccncc3)c(=O)c3cc(C)ccc32)cc1Cl 2.15%, COc1ccc(CNC(=O)CCc2c(C)c3ccc(OC)c(C)c3oc2=O)cc1OC 3.88%, Cc1cccc(Cn2c(SCc3ccc(C(=O)NCc4ccccc4)cc3)nc3cccnc32)c1 -0.541%, CCNC(=O)C1CCCN(c2ncnc3onc(C)c23)C1 (stereo not given) 5.43%, COC(=O)c1ccc(-n2nnc(-c3nc(-c4ccccc4Cl)no3)c2C)cc1 5.57%
